# Measurements reported in PubChem BioAssay AID686978 (National Center for Advancing Translational Sciences (NCATS), 2013).
# Several values for one entry are separate records, joined by “and”; a condition that tells them apart may be missing. Equal values may be shown once. The campaign covered roughly 420,000 compounds. About 64,000 (15%) were called active. The inconclusive results got no clear call from the source; some entries with a clear call stand among them for comparison. Calls follow the shape of the dose curve; as a rule, active = well fitted inhibition curve with a large enough effect; inconclusive = small, poorly fitted or top-dose-only effect; inactive = flat fitted curve, though single readings scatter. A potency beside an inconclusive call is a rough fit, not a confirmed value.
# Experiment: qHTS for Inhibitors of human tyrosyl-DNA phosphodiesterase 1 (TDP1): qHTS in cells in absence of CPT; also: nearly all actives have a fitted effect of over 55% in size
# Conditions: DT40 Tdp1-/- hTDP1 cells, no CPT, ATP luminescence, 48 h; activity change, negative = growth inhibition: at 46.2 µM (top of the series)
# Outline: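 Growth kinetics read by CellTiter-Glo luminescence after ≥48 hr at 37 °C. Cells: DT40 Tdp1-/- stably carrying human TDP1, 400 per well, compound exposure in the absence of CPT (DMSO vehicle).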
# % is scaled to controls: 0 for no effect and ±100 for the full control effect; potency is read from the fitted curve at half-maximal effect; tags tell the direction and shape of the fitted curve.
SMILES,Potency,"activity change, negative = growth inhibition"
COc1ccc(/C=C2\SC(=S)N(CCCC(=O)NC3CCCC3)C2=O)cc1OC,active: 16.4 µM,
COc1cccc(/C=C/C(=O)OCC(=O)NCc2ccco2)c1,,inactive: -14%
Cc1ccnc(N2CCC(C(=O)NCc3ccccc3F)CC2)n1,,inactive: 7.93%
CCOC(=O)C1=C(C)N=C2SC(C(=O)OC)=CC(=O)N2C1c1cccc(OC)c1 (stereo not given),"inconclusive: 23.1 µM [inhibitor, partial curve]",
Clc1ccc(CSCCc2ccncc2)cc1,"inconclusive: 23.1 µM [inhibitor, single point]",
CCCCN(C(=O)CSc1nc(CCC)cc(=O)[nH]1)c1c(N)n(Cc2ccccc2)c(=O)[nH]c1=O,"inconclusive: 13 µM [inhibitor, partial curve, poor fit]",
COc1ccccc1N(CC(=O)N/N=C/c1ccccc1C(=O)O)S(C)(=O)=O,,inactive: -11%
C=CCc1ccc(OCCCCNC(C)CC)c(OC)c1 (stereo not given),active: 18.4 µM,
Cc1cccc(C(=O)N=c2c(C#N)cc3c(=O)n4cccc(C)c4nc3n2Cc2ccco2)c1,"inconclusive: 29.1 µM [inhibitor, single point] and inconclusive: 14.6 µM [inhibitor, single point]",
O=C(NCc1ccco1)c1ccc(=O)oc1,,inactive: -5.21%
COc1ccc(-c2nn(-c3ccccc3)cc2CN(C)CCn2ccnc2C)c(F)c1,"inconclusive: 29.1 µM [inhibitor, single point]",
CC1NC(=O)c2cc3ccccc3cc2-n2c1nc1ccccc1c2=O (stereo not given),"inconclusive: 18.4 µM [inhibitor, single point]",
CC(/C=C/c1ccccc1)=N/NC(=O)c1cccc(Br)c1,active: 23.1 µM,
Cc1cc(NS(=O)(=O)c2ccc(NC(=O)/C=C/c3ccccc3)cc2)nc(C)n1,,inactive: -0.355%
C=CCc1ccccc1OCCCCN1CCCC1,"inconclusive: 29.1 µM [inhibitor, single point]",
COc1ccc(NC(=S)NCc2ccc3c(c2)cc(C)n3C)cc1,"inconclusive: 20.6 µM [inhibitor, single point]",
Cc1cccc(C)c1NC(=O)C(NC(=O)CN1C(=O)c2ccccc2C1=O)c1ccccc1 (stereo not given),,inactive: -13.2%
COc1ccccc1-c1cnc(C(O)c2c(C)cc(C)cc2C)[nH]1 (stereo not given),"inconclusive: 29.1 µM [inhibitor, single point]",
O=C(COC(=O)C1CCC1)NCc1ccc(F)cc1,,inactive: 0.612%
CCOc1c(C)cc(S(=O)(=O)NCc2cccnc2)c(C)c1C,,inconclusive: -31.8% [inhibitor]
Cc1cccc(C)c1NC(=O)CN1C(=O)C(C)Oc2ccccc21 (stereo not given),,inactive: 5.36%
Cc1c(Cl)cccc1NC(=S)NN1CCOCC1,,inactive: -4.98%
COc1ccc(/C=N/NC(=O)c2cc(-c3cccn3C)n[nH]2)cc1OC,active: 18.4 µM,
O=C(CN(C(=O)CCC(=O)Nc1nccs1)c1ccc(F)cc1)NCc1ccccc1,,inconclusive: -28.7% [inhibitor]
C1=C2C[N+]3(CCCC3)CC2Cc2ccc3ccccc3c21 (stereo not given),"inconclusive: 25.9 µM [inhibitor, single point]",

SMILES,Potency,"activity change, negative = growth inhibition"
CCCCCCN1CCN(C2CN(Cc3cn(Cc4cccc(C(F)(F)F)c4)nn3)S(=O)(=O)C2)CC1 (stereo not given),"inconclusive: 18.4 µM [inhibitor, single point]",
CC(=O)NC1=C(Nc2ccc(N(C)C)cc2)C(=O)c2ccccc2C1=O,"inconclusive: 9.2 µM [inhibitor, partial curve, poor fit]",
CC(C)c1ccc(N2C(=O)CC(NNC(=O)c3ccccc3Cl)C2=O)cc1 (stereo not given),,inactive: -19.9%
COc1ccc(C(=O)C(OC(=O)c2ccccc2)c2ccccc2)cc1 (stereo not given),"inconclusive: 16.4 µM [inhibitor, partial curve]",
Cc1ccc(C(=O)Nc2ccc(S(=O)(=O)N3CCOCC3)cc2)cc1C,,inconclusive: -31.8% [inhibitor]
Cc1nn2c(c1-c1ccccc1)N=C(c1ccco1)CC2c1ccccc1 (stereo not given),"inconclusive: 23.1 µM [inhibitor, single point]",
CCN(C(=S)Nc1cccc2ccccc12)c1ccccc1,active: 10.3 µM,
COc1ccc(NCC(O)COc2ccc(C(C)(C)C)cc2)cc1 (stereo not given),"inconclusive: 29.1 µM [inhibitor, single point]",
Cc1cccc(-n2c(C)cc(C(=S)N3CCOCC3)c2C)c1C,active: 18.4 µM,
Nc1ccccc1C(=O)/C=C/c1ccc2c(c1)OCO2,"inconclusive: 18.4 µM [inhibitor, single point]",
CCN(C(=S)Nc1cccnc1)c1cccc2ccccc12,,inactive: -2.09%
CCOC(=O)c1c(C)[nH]c(C)c1S(=O)(=O)N1CCC(c2ccccc2)C1 (stereo not given),"inconclusive: 11.6 µM [inhibitor, partial curve]",
Cc1ccc(OCCn2c(Br)nc3c2c(=O)n(C)c(=O)n3C)cc1,active: 18.4 µM,
N#Cc1c(SCc2cccc(Cl)c2)sc(C(=O)c2ccccc2)c1N,"inconclusive: 18.4 µM [inhibitor, partial curve]",
CCOC(=O)c1c(NC(=O)CSc2cn(CCNC(=O)c3ccccc3F)c3ccccc23)sc2c1CCC2,"inconclusive: 10.3 µM [inhibitor, partial curve]",
N#C/C(=C\c1cn(-c2ccccc2)nc1-c1cc2ccccc2o1)c1nc2ccccc2[nH]1,"inconclusive: 7.31 µM [inhibitor, partial curve]",
COc1ccc2[nH]c(C(=O)NCc3ccccc3)cc2c1,,inactive: 0.267%
CCOc1ccc2c(c1)-c1c(ssc1=S)C(C)(C)N2C(=O)CSC1=NCCS1,active: 11.6 µM,
CCOc1ccc(-n2ccc(=O)c(C(=O)O)n2)cc1,,inactive: 11%
Cc1cccn2c(=O)c3cc(C(=O)NCC4CCCO4)c(=N)n(CCc4ccccc4)c3nc12 (stereo not given),,inactive: -83.1%
COc1cccc(OC)c1OCCCCN1CCC(Cc2ccccc2)CC1,active: 18.4 µM,
Cc1cc(C)nc(SCc2nnc(SCC(=O)Nc3nc(-c4ccccc4)cs3)n2C)n1,active: 25.9 µM,
Cc1ccc(S(=O)(=O)CCC(=O)NC2CCCC2)cc1,,inactive: 12.8%
COc1cccc(CNC(=O)c2ccc(CSc3nc4ccncc4n3Cc3cccc(C)c3)cc2)c1,active: 16.4 µM,
COC(=O)[C@@]12C[C@@H](CC(=O)NCc3ccc(OC)c(OC)c3)C(=O)N(Cc3ccco3)C1=CCC(C)(C)C2,"inconclusive: 29.1 µM [inhibitor, single point]",

SMILES,Potency,"activity change, negative = growth inhibition"
COc1cccc(-n2nc(C#N)c(Cl)cc2=O)c1,active: 2.91 µM,
Cc1c(C(=O)N2CCCCC2C)sc2ncnc(N3CCc4ccccc4C3)c12 (stereo not given),active: 13 µM,
COc1cc(NC(=O)CCc2c(C)nn(-c3ccc4nncn4n3)c2C)cc(OC)c1OC,,inactive: -23.1%
COc1ccc(/C=C/C(=O)c2ccc(NC(=O)c3cccs3)cc2)cc1OC,active: 23.1 µM,
Cc1noc(C)c1COc1ccccc1C(=O)N(C)CC(=O)Nc1ccc(Cl)c(Cl)c1,"inconclusive: 29.1 µM [inhibitor, single point]",
C=CCSc1nc2c(c(=O)[nH]c(=O)n2C)n1Cc1ccccc1,"inconclusive: 25.9 µM [inhibitor, single point]",
CC=C1C2C=C(C)CC1(N)c1ccc(=O)[nH]c1C2 (stereo not given),,inactive: -0.642%
CCOCCc1nn2c(=O)cc(COC(=O)CNC(=O)c3ccc(C(C)(C)C)cc3)nc2s1,"inconclusive: 29.1 µM [inhibitor, single point]",
COCCn1c(-c2ccccc2F)n[nH]c1=S,,inactive: 0.466%
CCCCn1c(N)c(N(CCC(C)C)C(=O)CCCc2nc3ccccc3s2)c(=O)[nH]c1=O,,inactive: 3.16%
CC1=C(C(=O)Nc2ccccc2C(=O)NCc2ccccc2)SCCO1,"inconclusive: 18.4 µM [inhibitor, single point]",
C=CCNCCCCOc1ccc(Br)cc1C,"inconclusive: 23.1 µM [inhibitor, single point]",
COc1cccc(N2CCN(C(=O)c3ccc4c(=O)n(CCc5ccccc5)c(=O)[nH]c4c3)CC2)c1,active: 7.31 µM,
Cc1ccc(-c2nn(-c3ccccc3)cc2C(=O)Nc2ccc(C)c(S(=O)(=O)N3CCOCC3)c2)cc1,"inconclusive: 29.1 µM [inhibitor, single point]",
CCOc1ccc(CCN2C(=S)N([C@@H](Cc3ccc(O)cc3)CN3CCCC3CN3C(=S)NC[C@@H]3Cc3ccc(O)cc3)C[C@@H]2CC(C)C)cc1 (stereo not given in full),"inconclusive: 18.4 µM [inhibitor, single point]",
COC(=O)c1ccc(CNC(=O)C2CCC(=O)N(CCCc3ccccc3)C2)cc1 (stereo not given),"inconclusive: 18.4 µM [inhibitor, single point]",
COc1ccc(NC(=O)CSc2cn(CC(=O)N3CCOCC3)c3ccccc23)cc1OC,"inconclusive: 29.1 µM [inhibitor, single point]",
O=C(NC(=S)NC1CC1)c1cccnc1,,inactive: -0.892%
CC(C)(C)c1ccc(C(=O)N/C(N)=N/c2nc3ccccc3o2)cc1,"inconclusive: 20.6 µM [inhibitor, partial curve]",
Cc1c(CC(=O)NCCc2ccccc2F)c(=O)oc2c(C)c3occ(C(C)(C)C)c3cc12,active: 16.4 µM,
COc1ccc(/C=N/NC(=S)SC)cc1OC,,inactive: -0.245%
O=C(COC(=O)CNC(=O)c1ccc([N+](=O)[O-])o1)Nc1ncc(Cl)cc1Cl,,inactive: -6.82%
CC1=C/C(=N\NC(=O)c2ccccc2)CC1,,inactive: 1.29%
CC1(C(=O)Nc2ccccc2F)CCN1C(=O)Cc1cc(F)ccc1F (stereo not given),"inconclusive: 16.4 µM [inhibitor, single point]",
CCOC(=O)c1ccc2c(c1)n(CCCS(=O)(=O)[O-])c(/C=C/c1ccc(Cl)cc1)[n+]2CC,,inactive: -1.42%
